# Test results taken from the supplement of paper PMC12217912.
# This is one part of the list. Sequences were assembled here from the parent chain. Values near 0.05 are background.
# B1: TEV protease; numbered along this chain (parent)
# chain: MGESLFKGPRDYNPISSSICHLTNESDGHTTSLYGIGFGPFIITNKHLFRRNNGTLVVQSLHGVFKVKDTTTLQQHLVDGRDMIIIRMPKDFPPFPQKLKFREPQREERICLVTTNFQTKSMSSMVSDTSCTFPSGDGIFWKHWIQTKDGQCGSPLVSTRDGFIVGIHSASNFTNTNNYFTSVPKNFMELLTNQEAQQWVSGWRLNADSVLWGGHKVFMVKPEEPFQPVKEATQL
# Variants of: B1
# Assay: raw area under fraction-flipped curve 0-4 h after induction (AUC4h, not background-subtracted), DNA-recorder readout of cleavage of the substrate (dimensionless); higher = more cleavage of the substrate by the protease variant
# Settings: temperature: 34 °C; time window: 0-4 h after rhamnose induction
# Procedure: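 In vivo DNA recorder in E. coli TOP10(DE3) ΔrhaA at 34 °C. Each TEVp single-site mutant (parent TEVp 0) is paired with a single-site variant of the 7-mer TEVs (canonical ENLYFQ|S). The substrate sits between flexible linkers in a Bxb1-sfGFP-TEVs-SsrA fusion, so cleavage stabilises Bxb1 and speeds flipping of a recombination array, read by NGS. The value is the raw area under the fraction-flipped curve over 0-4 h after rhamnose induction (AUC4h), with ≥20 reads per time point. It is not background-subtracted; inactive controls average about 0.047.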
# 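Also: Bxb1 expression induced with 0.2% (w/v) L-rhamnose at OD600 near 0.5, cultures sampled hourly, flipped fraction per protease–substrate barcode pair counted by paired-end Illumina sequencing.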
Variant,area with substrate ENLCFQS,area with substrate ENLDFQS,area with substrate ENLEFQS,area with substrate ENLFFQS,area with substrate ENLHFQS,area with substrate ENLIFQS,area with substrate ENLKFQS,area with substrate ENLMFQS,area with substrate ENLNFQS,area with substrate ENLPFQS,area with substrate ENLQFQS,area with substrate ENLRFQS,area with substrate ENLSFQS,area with substrate ENLVFQS,area with substrate ENLGFQS,area with substrate ENLTFQS,area with substrate ENLWFQS,area with substrate ENLLFQS
MGESLFKGPRDYNPISSSICHLTNESDGHTTSLYGIGFGPFDITNKHLFRRNNGTLVVQSLHGVFKVKDTTTLQQHLVDGRDMIIIRMPKDFPPFPQKLKFREPQREERICLVTTNFQTKSMSSMVSDTSCTFPSGDGIFWKHWIQTKDGQCGSPLVSTRDGFIVGIHSASNFTNTNNYFTSVPKNFMELLTNQEAQQWVSGWRLNADSVLWGGHKVFMVKPEEPFQPVKEATQL [I42D],0.0401,0.0525,0.0508,0.0402,0.0382,0.0435,0.0385,0.014,0.0428,0.0259,0.048,0.0512,0.0467,0.0501,–,–,–,–
MGESLFKGPRDYNPISSSIEHLTNESDGHTTSLYGIGFGPFIITNKHLFRRNNGTLVVQSLHGVFKVKDTTTLQQHLVDGRDMIIIRMPKDFPPFPQKLKFREPQREERICLVTTNFQTKSMSSMVSDTSCTFPSGDGIFWKHWIQTKDGQCGSPLVSTRDGFIVGIHSASNFTNTNNYFTSVPKNFMELLTNQEAQQWVSGWRLNADSVLWGGHKVFMVKPEEPFQPVKEATQL [C20E],0.0517,0.0541,–,0.0371,0.0419,–,0.0481,–,0.0534,0.0438,0.0386,0.0383,0.0491,–,0.0373,0.0499,–,–
MGESLFKGPRDYNPISSSICHLTNESDGHTTSLYGIGFGPFIITNKHLFRRNNGTLVVQSLHGVFKVKDTTTLQQHLVDGRDMIIIRMPKDFPPFPQKLKFREPQREERHCLVTTNFQTKSMSSMVSDTSCTFPSGDGIFWKHWIQTKDGQCGSPLVSTRDGFIVGIHSASNFTNTNNYFTSVPKNFMELLTNQEAQQWVSGWRLNADSVLWGGHKVFMVKPEEPFQPVKEATQL [I110H],0.0554,0.0549,0.0505,0.0621,0.0464,0.0694,0.0582,–,0.06,0.0515,0.161,–,0.0586,0.0534,0.07,–,0.0584,–
MGESLFKGPRDYNPISSSICHLTNESDGHTTSLYGIGFGPFIITNKHLFRRNNGTLYVQSLHGVFKVKDTTTLQQHLVDGRDMIIIRMPKDFPPFPQKLKFREPQREERICLVTTNFQTKSMSSMVSDTSCTFPSGDGIFWKHWIQTKDGQCGSPLVSTRDGFIVGIHSASNFTNTNNYFTSVPKNFMELLTNQEAQQWVSGWRLNADSVLWGGHKVFMVKPEEPFQPVKEATQL [V57Y],0.0671,0.0759,0.0584,0.0759,0.0873,0.0847,0.0807,–,0.0841,0.0594,0.0525,0.0747,0.0561,0.0743,0.0631,–,0.0559,0.0824
MGESLFKGPRDYNPISSSICHLTNESDGHTTSLYGIGFGPFIITNKHLFRRNNGTLVVQSLHMVFKVKDTTTLQQHLVDGRDMIIIRMPKDFPPFPQKLKFREPQREERICLVTTNFQTKSMSSMVSDTSCTFPSGDGIFWKHWIQTKDGQCGSPLVSTRDGFIVGIHSASNFTNTNNYFTSVPKNFMELLTNQEAQQWVSGWRLNADSVLWGGHKVFMVKPEEPFQPVKEATQL [G63M],0.066,0.0612,0.0613,0.0777,0.0669,0.0643,0.061,–,–,0.0694,0.071,0.0641,0.0608,0.0734,–,–,0.0623,0.0767
MGESLFKGPRDYNPISSSICHLTNESDGHTTSLYGIGFGPFIITNKHLFRRNNGTLVVQSLHGVFKVKDTTTLQQHLVDGRDMIIIRMPKDFPPFPQKLKFREPQREERICLVTTNFQTKSMSSMVSDTSCTFPSGDGIFWKHWIQTKDGQCNSPLVSTRDGFIVGIHSASNFTNTNNYFTSVPKNFMELLTNQEAQQWVSGWRLNADSVLWGGHKVFMVKPEEPFQPVKEATQL [G153N],0.0528,0.0572,0.065,0.0246,0.0572,0.0212,–,–,0.0479,0.04,–,–,–,–,–,–,0.0592,0.0439
MGESLFKGPRDYNPISSSICHLTNESDGHTTSLYGIGFGPFIITNKHLFRRNGGTLVVQSLHGVFKVKDTTTLQQHLVDGRDMIIIRMPKDFPPFPQKLKFREPQREERICLVTTNFQTKSMSSMVSDTSCTFPSGDGIFWKHWIQTKDGQCGSPLVSTRDGFIVGIHSASNFTNTNNYFTSVPKNFMELLTNQEAQQWVSGWRLNADSVLWGGHKVFMVKPEEPFQPVKEATQL [N53G],0.0779,0.0632,0.0661,0.0962,0.0588,0.0815,0.0732,0.0627,0.0625,0.0733,0.0756,0.058,0.0616,–,0.0692,0.0605,–,0.0656
MGESLFKGPRDYNPISSSICHLTNESDGHTTSLYGIGFGPFIITNKHLFRRNNGTLVVQSLHGVFKVKDTTTLQQHLVDGRDMIIIRMPKDFPPFPQKLKFREPQREERICLVTTNFQTKSMSSMVSDTSCTFPSGDGIFWKHWIQTKDGQCGSPLVSTRDGFIVGIHSASNFTNTNNYFTSVPKNFMELLTNQEAQQWVSGWRLNADSVLWGGHKVFMVKPEEPFQPVGEATQL [K230G],0.0776,–,–,0.0808,0.0616,0.101,0.0867,–,0.0556,–,–,0.0868,0.0625,0.0928,0.0636,–,0.0875,0.0645
MGESLFKGPRDYNPISSPICHLTNESDGHTTSLYGIGFGPFIITNKHLFRRNNGTLVVQSLHGVFKVKDTTTLQQHLVDGRDMIIIRMPKDFPPFPQKLKFREPQREERICLVTTNFQTKSMSSMVSDTSCTFPSGDGIFWKHWIQTKDGQCGSPLVSTRDGFIVGIHSASNFTNTNNYFTSVPKNFMELLTNQEAQQWVSGWRLNADSVLWGGHKVFMVKPEEPFQPVKEATQL [S18P],0.0626,0.0591,–,0.0759,0.0512,0.0607,0.0402,–,0.0487,0.0429,0.0563,0.049,0.0357,–,–,–,–,0.0553
MGESLFKGPRDYNPISSSICHLTNESDGHTTSLYGIGFGPFIITNKHLFRRNNGTLVVQSLHGVFKVKDTTTLQQHLVDGRDMIIIRMPKDFPPFPQKLKFREPQREERICLVTTNFQTKSMSSMVSDTSCTFPSGDGIFWKHWIQTKDGQCGSPLVSTRDGFLVGIHSASNFTNTNNYFTSVPKNFMELLTNQEAQQWVSGWRLNADSVLWGGHKVFMVKPEEPFQPVKEATQL [I164L],0.068,0.0594,0.0716,0.0907,0.0635,–,0.0671,–,0.0599,0.0568,–,–,0.0497,–,0.0578,–,0.0653,0.0763
MGESLFKGPRDYNPISSSICHLQNESDGHTTSLYGIGFGPFIITNKHLFRRNNGTLVVQSLHGVFKVKDTTTLQQHLVDGRDMIIIRMPKDFPPFPQKLKFREPQREERICLVTTNFQTKSMSSMVSDTSCTFPSGDGIFWKHWIQTKDGQCGSPLVSTRDGFIVGIHSASNFTNTNNYFTSVPKNFMELLTNQEAQQWVSGWRLNADSVLWGGHKVFMVKPEEPFQPVKEATQL [T23Q],0.0535,0.063,0.0719,0.088,0.0245,–,0.0679,0.0752,0.0576,0.0567,0.0569,0.0629,0.0742,0.0998,–,–,0.0704,–
MGESLFKGPRDYNPISSSICHLTNESDGHTTSLYGIGFGPFIITNKHLFRRNNGTLVVQSLHGVFKVKDTTTLQQHLVDGRDMIIIRMPKDFPPFPQKLKFREYQREERICLVTTNFQTKSMSSMVSDTSCTFPSGDGIFWKHWIQTKDGQCGSPLVSTRDGFIVGIHSASNFTNTNNYFTSVPKNFMELLTNQEAQQWVSGWRLNADSVLWGGHKVFMVKPEEPFQPVKEATQL [P104Y],0.0708,0.0535,0.0545,0.0447,0.055,0.0595,0.0603,0.0636,0.0573,0.0648,0.0409,0.0546,0.0505,0.0561,–,–,0.0434,0.0566
MGESLFKGPRDYNPISSSICHLTNESDGHTTSLYGIGFGPFIITNKHLFRRNNGTLVVQSLHGVFKVKDTTTLQQHLVDGRDMIIIRMPKDFPPRPQKLKFREPQREERICLVTTNFQTKSMSSMVSDTSCTFPSGDGIFWKHWIQTKDGQCGSPLVSTRDGFIVGIHSASNFTNTNNYFTSVPKNFMELLTNQEAQQWVSGWRLNADSVLWGGHKVFMVKPEEPFQPVKEATQL [F95R],0.0585,0.0638,–,0.0598,0.0438,0.0636,0.061,–,0.0603,0.0478,0.0665,0.0628,0.0527,0.0718,0.0811,–,–,–
MGESLFKGPRDYNPISSSICHLTNESDGHTTSLYGIGFGPFIITNKHLFRRNNGTLVVQSLHGVFKVKDTTTLQQHLVDGRDMIIIRMPKDFPPFPQKLKFREPQREERICLVTTNFQTKSMSSMVSDTSCTFPSGDGNFWKHWIQTKDGQCGSPLVSTRDGFIVGIHSASNFTNTNNYFTSVPKNFMELLTNQEAQQWVSGWRLNADSVLWGGHKVFMVKPEEPFQPVKEATQL [I139N],0.0678,0.0589,0.06,0.0777,0.0608,0.0471,0.0633,0.0653,0.0635,0.0735,0.0533,0.0657,0.056,0.0685,0.0668,0.0613,0.0456,0.0675
MGESLFKGPRDYNPISSSICHLTNESDGHTTSLYGIGFGPFIITNKHLFRRNNGTLVVQSLHGVFKVKDTTTLQQHLVDGRDMIIIRMPKDFPPFPQKLKFREPQREERICLVTTNFQTKSMSSMVSDPSCTFPSGDGIFWKHWIQTKDGQCGSPLVSTRDGFIVGIHSASNFTNTNNYFTSVPKNFMELLTNQEAQQWVSGWRLNADSVLWGGHKVFMVKPEEPFQPVKEATQL [T129P],0.0806,0.068,–,0.0904,0.0715,0.0839,0.071,–,–,0.0652,0.0627,0.0673,0.0658,–,–,–,–,–
MGESLFKGPRDYNPISSSICHLTNESDGHTTSLYGIGFGPFIITNKHLFRRNNGTLVVQSLHGVFKVKDTTTLQQHLVDGRDMIIIRMPKDFPPFPQKLKFREPQREERICLVTTNFQTKSMSSMVSDTSCTFPSGDGIFWKHWIQTKDGQCGSPLVHTRDGFIVGIHSASNFTNTNNYFTSVPKNFMELLTNQEAQQWVSGWRLNADSVLWGGHKVFMVKPEEPFQPVKEATQL [S158H],0.0564,0.0574,0.0373,0.0529,0.0576,–,0.0549,–,–,0.0464,–,0.059,0.0431,0.0467,–,–,–,0.0368
MGESLFKGPRDYNPISSSICHLTNESDGHTTSLYGIGFGPFIITNKHLFRRNNGTLVVQSLHGVFKVKDTTTLQQHLVDGRDMIIIRMPKDFPPFPQKLKFREPQREERICLVTTNFQTKSMSSMVSDTSCTFPSGDGIFWKHWIQTKDGQCGSPLVSTRDGFIVGIHSASNFTNTNNYFTSVPKNFMELLTNQEAQQWVSGWRLNADSVLWGGHKVFLVKPEEPFQPVKEATQL [M219L],0.0501,0.0547,0.0571,0.0838,0.0865,–,0.0976,–,0.0768,0.0678,–,–,0.0483,0.118,–,–,–,0.0731
MGESLFKGPRDYNPISSSICHLTNESDGHTTSLYGILFGPFIITNKHLFRRNNGTLVVQSLHGVFKVKDTTTLQQHLVDGRDMIIIRMPKDFPPFPQKLKFREPQREERICLVTTNFQTKSMSSMVSDTSCTFPSGDGIFWKHWIQTKDGQCGSPLVSTRDGFIVGIHSASNFTNTNNYFTSVPKNFMELLTNQEAQQWVSGWRLNADSVLWGGHKVFMVKPEEPFQPVKEATQL [G37L],0.0615,0.0729,0.0647,0.0735,0.0527,–,0.0938,–,–,0.0597,0.0625,0.0557,0.0416,–,–,–,–,–
